In the supplement of paper PMC4604168 (melanoma cell lines) one finds cell count data, which are given here for 16 molecules.

Molecules are shown by their SMILES. The list shows a part of the results. Single values are uncertain, as repeats are few or missing.
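Also: cell number obtained by counting DAPI-stained nuclei in high-throughput microscope images with image analysis software, screen run in 1,536-well plates.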

The test system of this experiment is WM3526. The experiment is described as follows: cell count relative to DMSO control; melanoma cells; higher = more viable cells. The conditions noted are these: library dose: low library concentration; 72 h.
In turn, `CC(C)(C)c1cnc(CSc2cnc(NC(=O)C3CCNCC3)s2)o1` + COc1ccc2c(c1)CCC1C2CCC2(C)C(NCCCCCCN3C(=O)C=CC3=O)CCC12 [U73122] (first compound 0.01 µM, partner dose 0.4 µM) registered a cell count of 97.4%.
The result for `CC(C)(C)c1cnc(CSc2cnc(NC(=O)C3CCNCC3)s2)o1` + Oc1cc(-c2nc(-c3ccccc3)[nH]c2-c2ccncc2)ccc1Cl [L779450] (first compound 0.01 µM, partner dose 0.2 µM) reads 86.1%; that for `CC(C)(C)c1cnc(CSc2cnc(NC(=O)C3CCNCC3)s2)o1` + Cn1cc(/C=C2\C(=O)Nc3cccnc32)c2ccccc21 [GW441756] (first compound 0.01 µM, partner dose 0.4 µM), 117%.
`CN(NC(=O)CC(=O)NN(C)C(=S)c1ccccc1)C(=S)c1ccccc1` + COc1cc2ncnc(Nc3ccc(Oc4ccccc4)cc3)c2cc1OC [SrcI1] (first compound 0.006 µM, partner dose 2 µM) displayed a cell count of 101%.
The figure for `CCc1ccc(CCOc2ccc(CC3SC(=O)NC3=O)cc2)nc1` (stereo unspecified) [pioglitazone] + c1cc(-c2cnn3cc(-c4ccc(OCCN5CCCCC5)cc4)cnc23)ccn1 [Dorsomorphin] (first compound 2 µM, partner dose 0.4 µM) is 86.3%.
The result for `Cc1ccc(NC(=O)c2cccc(N(C)C)c2)cc1NC(=O)c1ccc(O)cc1` + Cn1cc(/C=C2\C(=O)Nc3cccnc32)c2ccccc21 [GW441756] (first compound 2 µM, partner dose 0.4 µM) reads 126%; that for `CN(NC(=O)CC(=O)NN(C)C(=S)c1ccccc1)C(=S)c1ccccc1` + O=c1cc(-c2cccc3c2Sc2ccccc2S3)oc(N2CCOCC2)c1 [KU55933] (first compound 0.006 µM, partner dose 1 µM), 97.7%.
The result for `CC(C)(C)c1cnc(CSc2cnc(NC(=O)C3CCNCC3)s2)o1` + O=C1NC(=O)/C(=C/c2ccc(-c3ccc(F)cc3O)o2)S1 [AS252424] (first compound 0.01 µM, partner dose 1 µM) reads 113%; that for `CN(NC(=O)CC(=O)NN(C)C(=S)c1ccccc1)C(=S)c1ccccc1` + O=C(Nc1ccccc1)c1cc([N+](=O)[O-])ccc1Cl [GW9662] (first compound 0.006 µM, partner dose 2 µM), 108%.
With `COc1cc2c(Oc3ccc4[nH]c(C)cc4c3F)ncnc2cc1OCCCN1CCCC1` [cediranib] + O=C(O)C(=O)Nc1sc2c(c1C(=O)O)CCNC2 [TCS401] (first compound 0.4 µM, partner dose 1.66667 µM), the cell count turned out to be 106%.
The result for `CC(C)(C)c1cnc(CSc2cnc(NC(=O)C3CCNCC3)s2)o1` + O=c1cc(-c2cccc3c2Sc2ccccc2S3)oc(N2CCOCC2)c1 [KU55933] (first compound 0.01 µM, partner dose 1 µM) reads 90.2%.
The figure for `COc1cc2c(Oc3ccc4[nH]c(C)cc4c3F)ncnc2cc1OCCCN1CCCC1` [cediranib] + CCc1ccc(CCOc2ccc(CC3SC(=O)NC3=O)cc2)nc1 [pioglitazone] (first compound 0.4 µM, partner dose 2 µM) is 110%; for `CN(NC(=O)CC(=O)NN(C)C(=S)c1ccccc1)C(=S)c1ccccc1` + O=C(O)C(=O)Nc1sc2c(c1C(=O)O)CCNC2 [TCS401] (first compound 0.006 µM, partner dose 1.66667 µM) it is 117%.
The figure for `CN(NC(=O)CC(=O)NN(C)C(=S)c1ccccc1)C(=S)c1ccccc1` + Cn1cc(/C=C2\C(=O)Nc3cccnc32)c2ccccc21 [GW441756] (first compound 0.006 µM, partner dose 0.4 µM) is 104%; for `Cc1ccc(NC(=O)c2cccc(N(C)C)c2)cc1NC(=O)c1ccc(O)cc1` + CCc1ccc(CCOc2ccc(CC3SC(=O)NC3=O)cc2)nc1 [pioglitazone] (first compound 2 µM, partner dose 2 µM) it is 115%; for `COc1cc2c(Oc3ccc4[nH]c(C)cc4c3F)ncnc2cc1OCCCN1CCCC1` [cediranib] + N#Cc1c(O)c2c(-c3ccc(-c4ccccc4O)cc3)csc2[nH]c1=O [A769662] (first compound 0.4 µM, partner dose 2 µM) it is 95.4%.
